{
  "source": "paper PMC12040169",
  "about": "(PLOS Biology, 2025)",
  "note": "This is one part of the list.",
  "data": [
    {"system": "T1, C. trachomatis L2/434/Bu expressing GFP (CTL2-GFP)", "T1 construct": "L2/434/Bu GFP intracellular growth in HeLa cells", "parameters": "species or system HeLa; C. trachomatis total inclusion area by high-content imaging, normalised to DMSO", "details": "total inclusion area; 28.5 h, 10 µM; inhibitor", "method_in_brief": "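High-content imaging followed the bulk GFP/resorufin measurement: fixed, Hoechst-stained cells were scored for GFP inclusions and host nuclei per well. Total inclusion area and count served as growth proxies, nuclei number as the viability proxy. MIC calculation matched the bulk assay.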", "values": [
      {"molecule": "COc1ccc(C2NC(C(=O)O)CS2)cc1CN1C[C@@H]2C[C@H](C1)c1cccc(=O)n1C2", "note": "(some centres unmarked) [CBK020798]", "% of control remaining": 105.955},
      {"molecule": "CN1CCC(C(=O)NC(=O)Nc2ccccc2F)CC1", "note": "[CBK034827]", "% of control remaining": 91.3707},
      {"molecule": "O=C1c2ccccc2NC(c2cccc(O)c2)N1O", "note": "(centres unmarked) [CBK288426]", "% of control remaining": 89.8053},
      {"molecule": "CN(C)c1ccc(C(=O)N2CCC(c3cc4ncccc4[nH]3)CC2)cc1", "note": "[CBK284459]", "% of control remaining": 110.871},
      {"molecule": "CCN(C(C)COC)S(=O)(=O)c1ccc(-n2ncc(Cl)c(Cl)c2=O)cc1", "note": "(centres unmarked) [CBK305662]", "% of control remaining": 1.307},
      {"molecule": "O=C(Oc1c(Cl)cc(Cl)c2cccnc12)c1cc(S(=O)(=O)N2CCCCC2)ccc1Cl", "note": "[CBK264518]", "% of control remaining": 96.3092},
      {"molecule": "S=C1NCN(Cc2ccccc2)CN1c1ccccc1", "note": "[CBK263536]", "% of control remaining": 101.237},
      {"molecule": "O=C(Nc1cccc(Cl)c1)C1CCC(C(=O)Nc2cccc(Cl)c2)CC1", "note": "(centres unmarked) [CBK269136]", "% of control remaining": 83.5848},
      {"molecule": "CC(C)Cc1ccc(C(C)c2nc3ccccc3[nH]2)cc1", "note": "(centres unmarked) [CBK261484]", "% of control remaining": 90.2618},
      {"molecule": "CN1C(=O)CC2(C1=O)C(=O)N(CC(=O)c1ccccc1)c1ccc(F)cc12", "note": "(centres unmarked) [CBK075420]", "% of control remaining": 114.045},
      {"molecule": "O=C(c1ccccc1NS(=O)(=O)c1cccc2cccnc12)N1CCOCC1", "note": "[CBK043338]", "% of control remaining": 84.9538},
      {"molecule": "CCOC(=O)CC1C(=O)NCCN1Cc1cccc(C)n1", "note": "(centres unmarked) [CBK269965]", "% of control remaining": 97.559},
      {"molecule": "O=C(CN1CCCC2(CCN(C(=O)c3cc(F)c(F)cc3F)C2)C1)Nc1ccc(F)c(Cl)c1", "note": "(centres unmarked) [CBK132008]", "% of control remaining": 64.4211},
      {"molecule": "COc1ccc2[nH]cc(CC(=O)N3CCCC4(CCN(C(=O)c5cc(F)c(F)cc5F)C4)C3)c2c1", "note": "(centres unmarked) [CBK131562]", "% of control remaining": 118.357},
      {"molecule": "C=CCNC(=O)C1CN(C)CC12CCc1ccccc1C(=O)N2", "note": "(centres unmarked) [CBK282401]", "% of control remaining": 105.115},
      {"molecule": "O=C(CSc1nnc2ccc(-c3ccccc3)nn12)NCc1ccccc1", "note": "[CBK287677]", "% of control remaining": 7.966},
      {"molecule": "COc1ccc(C(Nc2ccnc(OC)c2C#N)[C@H]2C[C@@H](O)C2)cn1", "note": "(some centres unmarked) [CBK306980]", "% of control remaining": 51.5387},
      {"molecule": "CCc1[nH]c2ccc(C(=O)NC3CCCOC3)cc2c1C", "note": "(centres unmarked) [CBK283247]", "% of control remaining": 109.361},
      {"molecule": "O=C(O)CC(NCc1ccccc1)C(=O)Nc1cccc(F)c1", "note": "(centres unmarked) [CBK266956]", "% of control remaining": 104.544},
      {"molecule": "CCC(C)(C)c1ccc(S(=O)(=O)N2CCCN(Cc3cccc4c3OCO4)CC2)cc1", "note": "[CBK062872]", "% of control remaining": 96.2382},
      {"molecule": "Cc1ccc2c(c1)C1(CC(=O)N(CC(=O)O)C1=O)C(=O)N2C", "note": "(centres unmarked) [CBK076104]", "% of control remaining": 62.1116},
      {"molecule": "Cn1nc(C(=O)N2Cc3cnn(Cc4ccc(F)cc4)c3C2)ccc1=O", "note": "[CBK306855]", "% of control remaining": 45.9897},
      {"molecule": "O=C(O)c1ccc(NS(=O)(=O)c2cc(C(=O)O)ccc2Br)cc1", "note": "[CBK113164]", "% of control remaining": 66.7762},
      {"molecule": "CCOC(=O)c1cnc2ccc(C(CCOCc3ccccc3)OCc3ccccc3)cc2c1O", "note": "(centres unmarked) [CBK018405]", "% of control remaining": 28.5793},
      {"molecule": "CC(=O)c1ccc(NC(=O)CSc2nnc(-c3ccc4ccccc4n3)s2)cc1", "note": "[CBK269205]", "% of control remaining": 73.8926},
      {"molecule": "CCCn1cc(CN2CCC(O)(c3ccc(C)cc3)CC2)cn1", "note": "[CBK282737]", "% of control remaining": 122.665},
      {"molecule": "O=C(c1ccc(Oc2ccccc2)cc1)N1CCC2(CCN(Cc3ccccc3)C2)C1", "note": "(centres unmarked) [CBK136833]", "% of control remaining": 90.2913},
      {"molecule": "Cc1nn2c(=O)[nH]ncc2c1-c1ccccc1C(=O)N(C(C)C)C(C)C", "note": "[CBK307043]", "% of control remaining": 77.9126},
      {"molecule": "CCC(=O)N1CCN(c2nc3ccc(OC)cc3s2)CC1", "note": "[CBK287721]", "% of control remaining": 75.541},
      {"molecule": "O=C(Cc1c[nH]c(=O)[nH]c1=O)Nc1ncc(Cc2ccc(F)cc2)s1", "note": "[CBK285674]", "% of control remaining": 97.2285},
      {"molecule": "C=C(C)CN1CCN(C(C(=O)O)c2c[nH]c3cc(F)ccc23)CC1", "note": "(centres unmarked) [CBK286835]", "% of control remaining": 132.967},
      {"molecule": "O=C(NC1Cc2ccccc2C1)c1ccc2ccccc2n1", "note": "[CBK200355]", "% of control remaining": 106.159},
      {"molecule": "Cc1ccc(C2(CNC(=O)CCc3ccncc3)CCOCC2)cc1", "note": "[CBK281574]", "% of control remaining": 111.02},
      {"molecule": "Cc1cc(C)c(NC(N)=O)c(C)c1", "note": "[CBK086399]", "% of control remaining": 67.0511},
      {"molecule": "O=C(O)c1ccc(CSc2nnc(-c3ccncc3)o2)cc1", "note": "[CBK266352]", "% of control remaining": 125.895},
      {"molecule": "Cc1cc(CN2CCN(CCc3ccccc3)CC2)no1", "note": "[CBK126426]", "% of control remaining": 111.991},
      {"molecule": "O=C(C1CCCC1)N1CC(n2nc(-c3cccs3)ccc2=O)C1", "note": "[CBK283345]", "% of control remaining": 94.5781},
      {"molecule": "Cc1ccc(C(=O)O)cc1NS(=O)(=O)c1ccc2c(c1)OCCO2", "note": "[CBK297497]", "% of control remaining": 97.4631},
      {"molecule": "O=C(NCc1c(Cl)cccc1Cl)N1CCCCC1CO", "note": "(centres unmarked) [CBK156184]", "% of control remaining": 94.4595},
      {"molecule": "Cc1nc2ncnn2c(C)c1CCC(=O)OCc1ccc(C#N)cc1", "note": "[CBK305838]", "% of control remaining": 42.4229},
      {"molecule": "O=[N+]([O-])c1cc(S(=O)(=O)N2CCCCCC2)ccc1NCc1ccccc1", "note": "[CBK262804]", "% of control remaining": 91.9262},
      {"molecule": "O=C(c1cccs1)N1CCC(n2c(=O)oc3ccccc32)CC1", "note": "[CBK284347]", "% of control remaining": 92.5344},
      {"molecule": "CCCc1nc(NC(c2cccc(C)n2)C2CC2)c2cnn(C)c2n1", "note": "(centres unmarked) [CBK306795]", "% of control remaining": 100.209},
      {"molecule": "Cc1[nH]c2ccccc2c1/C=N/c1ccc(S(N)(=O)=O)cc1", "note": "[CBK261352]", "% of control remaining": 56.5463},
      {"molecule": "Cc1cccc(-c2csc3c(=O)[nH]c(N4CCC(C(=O)NCCN5CCOCC5)CC4)nc23)c1", "note": "[CBK215640]", "% of control remaining": 117.942},
      {"molecule": "Cc1cccc2c1[nH]c1nc(N/N=C\\c3ccc(-c4cccc([N+](=O)[O-])c4)o3)nnc12", "note": "[CBK262373]", "% of control remaining": 104.931},
      {"molecule": "C[C@H]1CN(C(=O)c2cc(C3CC3)no2)[C@@H](C)CN1Cc1ccco1", "note": "[CBK281736]", "% of control remaining": 104.735},
      {"molecule": "CN1CCN(CCC(=O)N/N=C/c2cccc(Br)c2)CC1", "note": "[CBK261496]", "% of control remaining": 106.394},
      {"molecule": "CCOC(=O)c1sc(Nc2nc(C)cc(OC)n2)nc1C", "note": "[CBK264822]", "% of control remaining": 77.7242},
      {"molecule": "Cc1csc2c(C3CCN(C(=O)c4cccnc4)CC3)nc(C)n12", "note": "[CBK285242]", "% of control remaining": 78.7064}
    ]}
  ]
}
